Source: PubChem BioAssay AID1865 (National Center for Advancing Translational Sciences (NCATS), 2009)
“And” between values parts separate entries of the source, which are not always exact repeats. Identical values can stand only once. Among all 280,000 compounds or so, about 540 (0.19%) were called active. Inconclusive results, whose numbers are uncertain, are shown with a selection of clear calls. Calls come from the whole dose curve; as a rule, active = well fitted activation curve with a large enough effect; inconclusive = small, poorly fitted or top-dose-only effect; inactive = flat fitted curve, though single readings scatter. Where the call is inconclusive, the potency comes from a doubtful curve fit.

assay: Quantitative High-Throughput Screen for Regulators of Epigenetic Control; details: murine LDR cells, GFP reporter derepression, 30 h; series mostly up to 53.9 µM; GFP activation: at the top concentration; note: nearly all actives have a fitted effect of over 60% in size; for GFP activation: % of control where 0% means no effect
Text: NIH Molecular Libraries Screening Centers Network [MLPCN] NIH Chemical Genomics Center [NCGC] MLSCN Grant: 1 X01 MH079860-01 Assay Provider: Elisabeth D. Martinez, University of Texas SW Medical Center NCGC Assay Overview: The Locus Derepression (LDR) assay detects the derepression or induction of a GFP reporter that is stably integrated in a genomic region of murine cells that is presumably silenced. Transcription of the GFP reporter is controlled by a CMV promoter, which normally is constitutively active. However, this cell line, termed LDR, was selected for lack of constitutive production of GFP. GFP production can be induced by incubating the cells with histone deacetylase or DNA methyltransferase inhibitors (Martinez et al., 2006). Compounds that derepress or induce this reporter locus are identified by enumerating GFP positive cells using a laser-scanning microplate cytometer (Auld et al., 2006). This assay was screened against the MLSMR earlier (AID 597; (Johnson et al., 2008) and has been rescreened here against the expanded collection.
NCGC Assay Protocol Summary: Three hundred LDR cells in 5 uL per well were dispensed into black, clear-bottom 1536-well plates. Twenty-three nL compound was transferred to the assay plate and cells were incubated 30 hours at 37 C. Medium was removed, cells were washed two times with PBS, and GFP-positive cells were enumerated as fluorescent objects between the sizes of 20 to 120 um width and depth using an Acumen Explorer. References Auld, DS, Johnson, RL, Zhang, YQ, Veith, H, Jadhav, A, Yasgar, A, Simeonov, A, Zheng, W, Martinez, ED, Westwick, JK, Austin, CP, Inglese, J (2006). Fluorescent protein-based cellular assays analyzed by laser-scanning microplate cytometry in 1536-well plate format. Methods Enzymol 414: 566-89. Johnson, RL, Huang, W, Jadhav, A, Austin, CP, Inglese, J, Martinez, ED (2008). A quantitative high-throughput screen identifies potential epigenetic modulators of gene expression. Anal Biochem 375: 237-48. Martinez, ED, Dull, AB, Beutler, JA, Hager, GL (2006). High-content fluorescence-based screening for epigenetic modulators. Methods Enzymol 414: 21-36.
Potency is the fitted concentration of half-maximal effect; tags give direction and shape of the fitted curve.

| SMILES | Potency | GFP activation |
| --- | --- | --- |
| O=C1NC(=O)N(c2ccccc2)C(=O)/C1=C/c1ccc([N+](=O)[O-])s1 | inconclusive: 6.31 µM [activator, single point] |  |
| COc1ccc(OCC(=O)N2CCN(C/C=C/c3ccccc3)CC2)cc1 | inconclusive: 20 µM [activator, single point] |  |
| CC1CC(C)C(=O)[C@H](C(O)CC2CC(=O)NC(=O)C2)C1 (some centres undefined) | inconclusive: 3.16 µM [activator, full curve] |  |
| CC1(C)CC(=O)C2=C(C1)OC(N)=C([N+](=O)[O-])C2c1ccc(C#N)s1 (centres undefined) | inconclusive: 17.8 µM [activator, single point] |  |
| CC(=O)Oc1ccc(Cl)c2cccnc12 | inconclusive: 35.5 µM [activator, single point] |  |
| COc1cc(/C=C2/C(=O)N(c3ccccc3)N=C2C)ccc1OS(=O)(=O)c1ccccc1 | inconclusive: 25.1 µM [activator, single point] |  |
| Oc1cccc2nc3ccccc3nc12 | inconclusive: 22.4 µM [activator, single point] |  |
| O=c1c2ccccc2c(C=Nc2ccc(O)cc2)c(O)n1Cc1ccccc1 | inconclusive: 35.5 µM [activator, single point] |  |
| CCc1ccccc1NC(=O)c1sc2nc3c(cc2c1N)CN(Cc1ccccc1)CC3 | inconclusive: 31.6 µM [activator, single point] |  |
| C=C(C)[C@H]1O[C@H]2CC[C@@]3(C)[C@@](O)(CC[C@H]4[C@@H]5OC(C)(C)[C@H]6C[C@@H]7C(=C)Cc8c(Cl)cc9[nH]c(c5c9c8[C@@]76O)[C@@]43C)[C@]23O[C@@H]3[C@H]1O | inconclusive: 35.5 µM [activator, single point] |  |
| COc1ccccc1C1Nc2ccccc2-n2c(-c3ccccc3)c3c(=O)n(C)c(=O)n(C)c3c21 (centres undefined) | inconclusive: 0.112 µM [activator, full curve, poor fit] |  |
| C=CCN1C(=O)NC(=O)/C(=C/c2ccc(N(C)C)c(Br)c2)C1=O |  | inactive: 0.847% |
| O=C1NC(=O)N(Cc2ccccc2)C(=O)/C1=C/C=C/c1ccco1 | inconclusive: 31.6 µM [activator, single point] |  |
| CCn1ccnc1CN1CCCC(C(=O)c2cc(F)ccc2OC)C1 (centres undefined) | active: 3.98 µM |  |
| Cc1ccc(N2C(=O)NC(=O)/C(=C/c3ccoc3)C2=O)cc1 |  | inactive: -0.393% |
| CCC(N)Cc1c[nH]c2ccccc12 (centres undefined) |  | inactive: 0% |
| Cc1cccc(N2C(=O)NC(=O)/C(=C\c3cnn(-c4ccccc4)c3)C2=O)c1 | inconclusive: 31.6 µM [activator, single point] |  |
| O=[N+]([O-])c1ccc(N2CCCC2)c2ncccc12 | inconclusive: 35.5 µM [activator, single point] |  |
| CC12CN3CC(C)(CN(C1)C3c1cccs1)C2 (centres undefined) | inconclusive: 6.31 µM [activator, single point] |  |
| Cc1ccc(C(=O)Nc2nc3ccccc3n2CCN2CCCC2)cc1 | inconclusive: 6.31 µM [activator, single point] |  |

| SMILES | Potency | GFP activation |
| --- | --- | --- |
| C/C(N)=C(/C#N)C(=O)CSc1nc2cc(Cl)ccc2c(=O)n1-c1ccc(C)cc1 | inconclusive: 31.6 µM [activator, single point] |  |
| C/C1=C\[C@@H](C)C/C=C/[C@H]2[C@@H]3O[C@]3(C)[C@@H](C)[C@H]3[C@H](Cc4c[nH]c5ccccc45)NC(=O)[C@]32C(=O)/C=C/C(=O)[C@@H]1O | inconclusive: 5.01 µM [activator, single point] |  |
| Cc1ccc2c(CN3CC=C(c4ccccc4)CC3)cc(=O)oc2c1C |  | inactive: 0.109% |
| CCCCCCNC(=O)N[C@H](Cc1ccc(O)cc1)C(=O)NCCC[C@H]1CN2C(=NC[C@H]2CCC)N1CC1CCC1 | inconclusive: 35.5 µM [activator, single point] |  |
| CC(C)c1ccc(N2C(=O)NC(=O)/C(=C\C=C\c3ccco3)C2=O)cc1 | inconclusive: 35.5 µM [activator, single point] |  |
| c1cncc(CNc2cc(-c3ccc4c(c3)OCO4)ncn2)c1 | inconclusive: 31.6 µM [activator, single point] |  |
| COc1cc2c(cc1OC)-c1c(O)c(OC)cc3c1[C@H](C2)N(C)CC3 | inconclusive: 17.8 µM [activator, single point] |  |
| O=C1C=CC(=O)c2c(O)cccc21 | inconclusive: 25.1 µM [activator, single point] |  |
| COC[C@H]1OC(=O)c2coc3c2[C@@]1(C)C1=C(C3=O)[C@@H]2CCC(=O)[C@@]2(C)C[C@H]1OC(C)=O | inconclusive: 31.6 µM [activator, single point] |  |
| O=c1c2ccccc2nc(/C=C/c2ccccc2O)n1-c1ccc(Br)cc1 | inconclusive: 35.5 µM [activator, single point] |  |
| C/C(=N\N1CCCCC1c1cccnc1)c1c(O)n(C2CCCCC2)c(=S)[nH]c1=O (centres undefined) | inconclusive: 31.6 µM [activator, single point] |  |
| Cc1cc(C(=O)CS(=O)c2ccc(F)cc2)cc(C)c1OC(=O)N(C)C (centres undefined) | inconclusive: 31.6 µM [activator, single point] |  |
| O=c1[nH]c(CN2CC=C(c3ccccc3)CC2)nc2scc(-c3ccccc3)c12 | inconclusive: 28.2 µM [activator, single point] |  |
| CNC(=O)OCc1n(C)cc[n+]1C | inconclusive: 35.5 µM [activator, single point] |  |
| S=C(S)N1CCCC1 | inconclusive: 3.16 µM [activator, partial curve] and inconclusive: 708 nM [activator, full curve, poor fit] |  |
| C[C@H]1C[C@@H](C)C(=O)[C@@H]([C@H](O)CC2CC(=O)NC(=O)C2)C1 | inconclusive: 1.78 µM [activator, full curve] and inconclusive: 5.62 µM [activator, single point] |  |
| CCOC(=O)c1nc2ccccc2c(=O)n1-c1ccc(C)cc1 | inconclusive: 20 µM [activator, single point] |  |
| O=C(O)c1ccccc1-c1c2cc(Br)c(=O)cc-2oc2[c]([Hg])c(O)c(Br)cc12 | inconclusive: 7.94 µM [activator, single point] |  |
| N[C@@H](Cn1oc(=O)[nH]c1=O)C(=O)O | inconclusive: 6.31 µM [activator, single point] |  |
| CCOC(=O)Cn1cc([N+](=O)[O-])nc1[N+](=O)[O-] |  | inactive: -0.295% |

| SMILES | Potency | GFP activation |
| --- | --- | --- |
| Cc1cc(NC(=O)CCl)no1 | inconclusive: 25.1 µM [activator, single point] |  |
| O=C1NC(=O)N(c2ccccc2)C(=O)/C1=C\c1ccccc1[N+](=O)[O-] |  | inactive: 0.115% |
| COc1ccc(N2C(=O)/C(=C/c3cccs3)C(=O)NC2=S)cc1 | inconclusive: 31.6 µM [activator, single point] |  |
| C/C=C(/C)C(=O)O[C@H]1C(C)=C2C([C@@H]1OC(=O)CCCCCCC)[C@@](C)(OC(C)=O)C[C@@H](OC(=O)CCC)[C@@]1(O)[C@H]2OC(=O)[C@@]1(C)O (some centres undefined) | inconclusive: 5.01 µM [activator, partial curve] |  |
| CCCCC/C=C\C/C=C\C/C=C\C/C=C\CCCC(=O)NCc1ccc(O)c(OC)c1 | inconclusive: 35.5 µM [activator, single point] |  |
| CCCCOCCCn1c(N)c(C(=O)OCCOC)c2nc3ccccc3nc21 |  | inactive: 4.12% |
| O=[N+]([O-])c1ccc(NCc2ccccc2)c2nonc12 | active: 22.4 µM |  |
| COC(=O)[C@@H]1[C@@H](O)[C@@]2(O)c3c(OC)cc(OC)cc3O[C@@]2(c2ccc(OC)cc2)[C@H]1c1ccccc1 | active: 3.55 µM |  |
| CN(CCc1ccc(Cl)c(Cl)c1)[C@H]1CCCC[C@H]1N1CCCC1 |  | inactive: 1.05% |
| CCN(CC)c1ccc(/C=N/c2sc3c(c2C#N)C2CCN3CC2)c(O)c1 | active: 2.82 µM |  |
| C[C@H]1C[C@H](C)C(=O)[C@@H]([C@H](O)CC2CC(=O)NC(=O)C2)C1 | inconclusive: 3.16 µM [activator, partial curve] |  |
| CC=C(C)C(=O)O[C@H]1C(C)=C2[C@@H]3OC(=O)[C@@](C)(O)[C@@]3(O)[C@@H](OC(=O)CCC)C[C@](C)(OC(C)=O)[C@@H]2[C@@H]1OC(=O)CCCCCCC | inconclusive: 0.0501 µM [activator, full curve, poor fit] |  |
| CN1Cc2ccccc2[C@@H]2c3cccc4[nH]cc(c34)C[C@H]21 | inconclusive: 31.6 µM [activator, single point] and inconclusive: 35.5 µM [activator, single point] |  |
| CC(C)n1c(O)c(C2c3cc(Cl)ccc3Oc3[nH]c(=O)n(C(C)C)c(=O)c32)c(=O)[nH]c1=O (centres undefined) | inconclusive: 5.62 µM [activator, single point] |  |
| CCc1ccc(N2C(=O)NC(=O)/C(=C\C=C\c3ccco3)C2=O)cc1 | inconclusive: 4.47 µM [activator, single point] |  |
| CC(C)=CCCC1(C)C=Cc2c(O)c3c(c(CC=C(C)C)c2O1)OC12C(CC4CC1C(C)(C)OC2(C/C=C(/C)C(=O)O)C4O)C3=O (centres undefined) | inconclusive: 22.4 µM [activator, single point] |  |
| CCOc1ccc(C2c3c(-c4ccccc4O)n[nH]c3C(=O)N2Cc2ccncc2)cc1 (centres undefined) | inconclusive: 12.6 µM [activator, single point] |  |
| COc1cc(C[C@@H](C)N)c(OC)cc1I | inconclusive: 6.31 µM [activator, single point] |  |
| CC(C)c1ccc(N2C(=O)NC(=O)/C(=C/c3cnc(-c4ccccc4)nc3)C2=O)cc1 | inconclusive: 31.6 µM [activator, single point] |  |
